Drawing on PMC6212790, this text covers binding signal for 172 sequences.

The list shows a part of the results. At the low end of the ranking, values are background and their order means little.

For the assay, the target named is T1, GST-Rok-C97-191 (UniProt O34857).
T1 sequence: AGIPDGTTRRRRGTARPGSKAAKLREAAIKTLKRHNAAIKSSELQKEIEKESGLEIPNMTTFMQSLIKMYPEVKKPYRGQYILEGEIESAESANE
Nature of the assay: protein binding microarray.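 Also: rank score from −0.5 (least bound) to 0.5 (best bound).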 To be noted: Rok is a gene silencer of Bacillus subtilis; high values mean tight binding; most listed sequences are background and not binding sites; double strand, one strand shown.
For the sequence AGATGTAA, the binding signal was 0.191 E-score.
The value for ATGGCGGG was -0.184 E-score; that for CGTCAAAC was -0.0621 E-score.
With GCTGCTTA, the binding signal is -0.133 E-score.
Turning to GATGAGAA, the binding signal turned out to be 0.0291 E-score.
In turn, CAGCTTGA had a binding signal of -0.0891 E-score.
The value for AGGGTGAC was -0.321 E-score.
The value for TCACCGAA was -0.153 E-score; that for GTGATCTA was 0.0717 E-score.
The value for ATAAACTA was 0.359 E-score; that for ATCCGCTA was 0.175 E-score; that for ATATCTCC was 0.27 E-score.
CGGTCTTC gave a binding signal of -0.223 E-score.
As for TGAACTCA, the binding signal is -0.127 E-score.
GTACTCAA gave a binding signal of -0.0487 E-score.
The value for ACAAGGAT was 0.0455 E-score; that for GGTGTCAA was 0.0604 E-score; that for GCAGGCGA was -0.121 E-score.
Regarding ATGGTCTG, the binding signal is -0.205 E-score.
The value for AAACCATT was 0.0833 E-score.
The value for CACGTCAC was 0.0309 E-score.
The value for AGGGTTTC was -0.0738 E-score.
The sequence GAGAAGGA yielded a binding signal of -0.326 E-score.
As for AGTTGGAA, the binding signal is -0.0261 E-score.
The value for ATAGTTGA was 0.215 E-score; that for CTGGGTAA was 0.0335 E-score.
In turn, AAGAGTCA showed a binding signal of -0.165 E-score.
The value for CCACCAGG was -0.135 E-score; that for ATGGACCC was -0.138 E-score.
The value for ATACACGA was 0.0518 E-score; that for ATAGGCAA was -0.102 E-score.
GTAGAGCA returned a binding signal of -0.0886 E-score.
The value for GCAGGACA was -0.143 E-score.
The value for TAGCCGAA was -0.0139 E-score.
The value for AGCTGGGG was -0.121 E-score.
GCCCCGGA: the binding signal is -0.457 E-score.
The value for ACTGGACG was -0.00182 E-score; that for CGCTGGCA was -0.178 E-score.
The value for AGCTGGTA was 0.183 E-score; that for CCACCGAA was -0.0537 E-score; that for TACTCTGA was -0.259 E-score.
GCGGGAGA yielded a binding signal of -0.111 E-score.
The value for GTATCTAA was 0.262 E-score.
As to ATCAGTTC, the binding signal is 0.169 E-score.
The value for AGTTTTTA was 0.192 E-score.
The value for CCTGGCAG was -0.155 E-score.
The value for CCTTACAA was 0.0042 E-score; that for GATTTGGA was 0.0767 E-score; that for AAACGGTA was 0.151 E-score.
On to CTTCTCTA, for which the binding signal came out at 0.0786 E-score.
The value for CAGGAGGC was -0.404 E-score; that for AGACGACA was -0.201 E-score; that for AGATTTCA was 0.114 E-score.
The value for ATGGCGTG was -0.193 E-score; that for AGTTTCAG was 0.072 E-score.
The value for ACAACTAT was 0.321 E-score.
GCTGCCAA had a binding signal of 0.0765 E-score.
The value for CTAGAACC was 0.0221 E-score.
The value for ACAATTAT was 0.165 E-score; that for ACAGTATG was 0.101 E-score; that for AAGGGGGC was -0.324 E-score.
Sequence AGTCTCGG gave a binding signal of -0.0208 E-score.
The value for ATGTGAGG was -0.25 E-score; that for CAGGCAGA was -0.298 E-score.
The value for ACTTCCTA was 0.12 E-score.
AGTTTATG yielded a binding signal of 0.12 E-score.
The value for GTTAGCCA was -0.0313 E-score; that for AAGGAGCG was -0.2 E-score.
As to GTTTTATA, the binding signal came out at 0.122 E-score.
The value for GCAGATCC was -0.137 E-score; that for ATGTATGC was 0.189 E-score.
CGCTGCGA returned a binding signal of 0.0439 E-score.
The value for ACTGGCTC was -0.203 E-score; that for AAGGCTCG was -0.238 E-score.
The value for AGCTCACT was -0.0486 E-score; that for CGAACTGA was -0.257 E-score.
AGTCTTGC showed a binding signal of 0.0754 E-score.
The value for CTAGCTGC was -0.135 E-score; that for ACCTACAA was 0.239 E-score; that for AATGGAGC was -0.00463 E-score.
The value for ATATGCGA was 0.0698 E-score; that for AACGACCG was -0.087 E-score.
Consider CATTTTTA, for which the binding signal was determined as 0.184 E-score.
The value for AGGGAGAG was -0.246 E-score.
Sequence CACGCAGG displayed a binding signal of -0.245 E-score.
The value for AACCTTGC was -0.122 E-score.
The value for CTATTTCA was 0.0631 E-score.
The value for AATTTATA was 0.373 E-score; that for AAGACCCG was -0.115 E-score; that for GACTGCCC was -0.275 E-score.
In turn, GCGGGACA showed a binding signal of -0.242 E-score.
Take AACACGTG: the binding signal is -0.127 E-score.
For AGTGTTGA, the binding signal amounted to 0.0238 E-score.
Take CGTCATGC: the binding signal is -0.188 E-score.
The value for AACGACCT was -0.00857 E-score; that for CTAGGCAG was -0.128 E-score.
Turning to GCATAGTA, the binding signal worked out at 0.253 E-score.
The sequence GCTCCACA showed a binding signal of 0.0866 E-score.
The value for CCTTTAAC was 0.0957 E-score; that for CACTTCCG was -0.0347 E-score.
The value for AATGACAA was 0.0576 E-score; that for AGTCTGTG was -0.0121 E-score; that for AGAGTCTC was 0.035 E-score.
The value for AACTGGCT was -0.0274 E-score.
The sequence AGGTTGGG yielded a binding signal of -0.154 E-score.
In turn, AGATATAT gave a binding signal of 0.421 E-score.
Regarding TCCATTAA, the binding signal worked out at 0.048 E-score.
The value for GTGGTTAA was -0.104 E-score; that for GCGTTAGC was -0.193 E-score.
The value for CAACGCCG was -0.278 E-score.
As for GACGTGAC, the binding signal was 0.0309 E-score.
The value for CGCCACAC was -0.0118 E-score.
The value for GGATTTAA was 0.0279 E-score; that for GTCCACCA was -0.25 E-score.
The value for CGGTCGAG was -0.197 E-score; that for CATTGCGC was 0.0974 E-score.
Turning to AGAAACCC, the binding signal is -0.0576 E-score.
For the sequence ATGACATA, the binding signal came out at 0.0408 E-score.
The value for CGAGCGGA was -0.206 E-score; that for TGAACCCA was -0.0276 E-score; that for GACCTCGC was -0.261 E-score.
The value for GGCTTGAC was -0.139 E-score; that for ATAACGAT was 0.285 E-score.
Sequence AAGCGAGC registered a binding signal of -0.214 E-score.
The value for CCTCTGTA was -0.118 E-score.
The value for ACGCAAAA was 0.118 E-score; that for ATTAGTCC was 0.146 E-score.
TCATTCAA displayed a binding signal of 0.0219 E-score.
Sequence CCGAGATC yielded a binding signal of -0.0194 E-score.
The value for TACCAGGA was 0.149 E-score; that for GACCGTCC was -0.203 E-score.
Take TGGACGAA: the binding signal is -0.0653 E-score.
The value for GAAGCGTA was -0.00889 E-score; that for TGACGAAA was -0.0112 E-score; that for ATCTTCGG was 0.172 E-score.
The value for AGTTTATA was 0.278 E-score; that for AGCCCTCG was -0.278 E-score; that for CCGACTAG was 0.0252 E-score.
In turn, CGCATTCA returned a binding signal of 0.00763 E-score.
CATCGTAG: the binding signal was -0.0544 E-score.
The value for AGGTGCGC was -0.123 E-score; that for ACAGGCGG was -0.187 E-score; that for ACTTTGCA was 0.123 E-score.
The value for ATCCAATC was 0.0383 E-score.
On to AAAAGGTC, for which the binding signal was found to be 0.0149 E-score.
Take AGCGAACT: the binding signal was determined as 0.0463 E-score.
In turn, ATCGACTC showed a binding signal of -0.0989 E-score.
On to GCAGCTAC, for which the binding signal was -0.103 E-score.
The value for CGATGTTC was 0.00806 E-score; that for CATTACGG was -0.0391 E-score.
The value for ACTTCACC was -0.017 E-score; that for AATATAGC was 0.349 E-score; that for GAACAAGC was 0.0816 E-score.
The value for AGTCCATG was 0.073 E-score; that for CCGACGAG was -0.156 E-score.
TATCACAA yielded a binding signal of 0.147 E-score.
As to ACAATCAA, the binding signal was found to be 0.212 E-score.
The value for TCACGGCA was -0.0376 E-score; that for AACTGTAC was 0.23 E-score; that for AGGAGTCG was -0.139 E-score.
The value for ATAACTTC was 0.135 E-score.
As to TACCCCGA, the binding signal was -0.221 E-score.
The value for CGCTCGCC was -0.137 E-score; that for AACGGCTT was -0.144 E-score.
Consider GGTTATTA, for which the binding signal was determined as 0.0524 E-score.
The value for CAAGCCCC was -0.307 E-score; that for GCAGTGAA was -0.237 E-score.
The value for ACCTGCAA was -0.227 E-score.
The value for CAAGGCAC was -0.192 E-score.
For GCTACAGA, the binding signal came out at 0.177 E-score.
In turn, GTGGCAGA had a binding signal of -0.33 E-score.
The value for CGGTCGAA was -0.0134 E-score.
